Reference: the antibiotic and cytotoxicity screens of Wong et al. (2023)
The other results are listed elsewhere or left out.

What follows are compounds tested on HSkMC (human skeletal muscle cells) (assay: cytotoxicity call (relative viability < 0.9)). Settings: 10 µM.

Cc1ccc(S(=O)(=O)Nc2ccc3c(c2)C(=O)N([C@@H](C)CO)C[C@H](C)[C@H](CN(C)C(=O)C2CCCCC2)OCCCC[C@@H](C)O3)cc1 was tested. Which cytotoxicity call did it give?
The cytotoxicity call was “inactive”.

How did the cytotoxicity call turn out when O=c1c(O)c(-c2ccc(O)c(O)c2)oc2cc(O)cc(O)c12 was run?
Its cytotoxicity call is “inactive”.

With C[C@@H]1CCCCO[C@@H](CN(C)Cc2ccc3c(c2)OCO3)[C@@H](C)CN([C@@H](C)CO)C(=O)c2cc(NC(=O)C3CCCCC3)ccc2O1 as the compound, how does the cytotoxicity call read?
The cytotoxicity call was “inactive”.

C[C@H](CO)N1C[C@H](C)[C@H](CN(C)S(=O)(=O)c2ccccc2)Oc2ccc(NC(=O)c3ccncc3)cc2CC1=O was tested. Which cytotoxicity call did it give?
Its cytotoxicity call is “inactive”.

With C[C@@H]1CN([C@H](C)CO)C(=O)c2cccc(NC(=O)Nc3ccc(F)cc3)c2O[C@H]1CN(C)Cc1ccc(C(F)(F)F)cc1 as the compound, how does the cytotoxicity call read?
The cytotoxicity call was “inactive”.

Which cytotoxicity call does the source give for COCCNC(=O)C[C@@H]1CC[C@@H]2[C@@H](COc3ccc(NC(=O)Nc4cccc(F)c4)cc3C(=O)N2C)O1 here?
The cytotoxicity call was “inactive”.

How did the cytotoxicity call turn out when COc1ccc([Si](C)(C)[C@@H]2[C@@H](CC(=O)N(CCO)Cc3ccccc3)O[C@]3(C(=O)N(Cc4cccc(N5CCC5=O)c4)c4ccccc43)[C@H]2C)cc1 was run?
Its cytotoxicity call is “inactive”.

Cc1noc(C)c1S(=O)(=O)N(C)C[C@@H]1Oc2ccc(NC(=O)Cc3ccccc3)cc2CC(=O)N([C@@H](C)CO)C[C@@H]1C was tested. Which cytotoxicity call did it give?
The cytotoxicity call was “inactive”.

Which cytotoxicity call does the source give for Cn1c([N+](=O)[O-])cnc1COC(N)=O here?
The cytotoxicity call was “inactive”.

For CCCC[C@@H](C#N)c1ccccn1, which cytotoxicity call is on record?
The cytotoxicity call was “inactive”.

With O=C(C[C@@H]1CC[C@H]2[C@@H](COC[C@@H](O)CN2C(=O)Nc2ccc(C(F)(F)F)cc2)O1)NCCc1ccncc1 as the compound, how does the cytotoxicity call read?
Its cytotoxicity call is “inactive”.

With Cc1ccc(S(=O)(=O)N(C)C[C@H]2Oc3ccc(NS(C)(=O)=O)cc3C(=O)N([C@H](C)CO)C[C@@H]2C)cc1 as the compound, how does the cytotoxicity call read?
Its cytotoxicity call is “inactive”.

For C[C@@H]1CN([C@H](C)CO)S(=O)(=O)c2ccc(-c3cncnc3)cc2O[C@@H]1CN(C)C(=O)CN(C)C, which cytotoxicity call is on record?
The cytotoxicity call was “inactive”.

How did the cytotoxicity call turn out when C[C@H](CO)N1C[C@H](C)[C@@H](CN(C)CC2CC2)OCCCC[C@H](C)Oc2ccc(NC(=O)Nc3ccc4c(c3)OCO4)cc2C1=O was run?
Its cytotoxicity call is “inactive”.

C[C@H](CO)N1C[C@H](C)[C@@H](CN(C)Cc2ccc(Oc3ccccc3)cc2)Oc2c(NC(=O)C3CC3)cccc2C1=O was tested. Which cytotoxicity call did it give?
The cytotoxicity call was “inactive”.

How did the cytotoxicity call turn out when CCc1nc2ccc(C(=O)Nc3cc(-c4ccccc4)ccc3OC)cn2c1N(C)CCCc1ccccc1 was run?
The cytotoxicity call was “inactive”.

For COc1ccc(S(=O)(=O)N(C)C[C@@H]2Oc3ccc(NS(=O)(=O)c4c(C)noc4C)cc3CC(=O)N([C@@H](C)CO)C[C@H]2C)cc1, which cytotoxicity call is on record?
The cytotoxicity call was “inactive”.

How did the cytotoxicity call turn out when C[C@H]1CN([C@@H](C)CO)C(=O)c2cccc(NC(=O)c3ccc(-c4nccs4)cc3)c2O[C@@H]1CN(C)Cc1ccc(-c2ccccc2)cc1 was run?
Its cytotoxicity call is “inactive”.

Which cytotoxicity call does the source give for C[C@H]1CN([C@@H](C)CO)S(=O)(=O)c2ccc(C3=CCCC3)cc2O[C@@H]1CN(C)S(=O)(=O)c1cn(C)cn1 here?
Its cytotoxicity call is “inactive”.

Cc1noc(C)c1NC(=O)N(C)C[C@H]1OCCCC[C@@H](C)Oc2ccc(NC(=O)CCC(F)(F)F)cc2C(=O)N([C@H](C)CO)C[C@@H]1C was tested. Which cytotoxicity call did it give?
The cytotoxicity call was “inactive”.

Which cytotoxicity call does the source give for C[C@H](CO)N1C[C@H](C)[C@H](CN(C)Cc2ccc(Cl)c(Cl)c2)Oc2ccc(NC(=O)Cc3ccccc3)cc2CC1=O here?
The cytotoxicity call was “inactive”.

Which cytotoxicity call does the source give for CC(C)[C@H]1CC[C@@H](C)C[C@@H]1NC(=O)c1cccc2ccccc12 here?
The cytotoxicity call was “inactive”.

For C[C@H]1CN([C@@H](C)CO)C(=O)c2cccc(NC(=O)c3ccc(-c4nccs4)cc3)c2O[C@H]1CN(C)S(C)(=O)=O, which cytotoxicity call is on record?
The cytotoxicity call was “inactive”.

With Cn1c(=O)n2n(c1=O)[C@H](C1CC1)C=C1CN3[C@@H]([C@H](Cc4ccccc4)OC(=O)[C@@H]3Cc3ccc(-n4cc(CCC(=O)NO)nn4)cc3)[C@@H]12 as the compound, how does the cytotoxicity call read?
Its cytotoxicity call is “inactive”.

How did the cytotoxicity call turn out when CC(C)NC(=O)Nc1ccc2c(c1)CC(=O)N([C@@H](C)CO)C[C@H](C)[C@@H](CN(C)S(=O)(=O)c1ccccc1)O2 was run?
The cytotoxicity call was “inactive”.

With C[C@@H]1O[C@@H](O)[C@H](O)[C@H](O)[C@H]1O as the compound, how does the cytotoxicity call read?
The cytotoxicity call was “inactive”.

How did the cytotoxicity call turn out when C[C@@H]1CCCCO[C@H](CN(C)Cc2ccc(C(=O)O)cc2)[C@@H](C)CN([C@H](C)CO)C(=O)c2cc(NC(=O)C3CCCCC3)ccc2O1 was run?
The cytotoxicity call was “inactive”.

Which cytotoxicity call does the source give for Nc1cc(=O)nc(N)[nH]1 here?
Its cytotoxicity call is “inactive”.

How did the cytotoxicity call turn out when C[C@H](CO)N1C[C@H](C)[C@H](CN(C)Cc2ccc(C(F)(F)F)cc2)OCCCC[C@H](C)Oc2ccc(NC(=O)Cc3ccccc3)cc2C1=O was run?
Its cytotoxicity call is “inactive”.

C=CCC[C@H](Cc1ccc(F)cc1)C(=O)OC[C@H](Cc1c[nH]c2ccccc12)NC(=O)[C@H](CC=C)CC(=O)N(CCO)Cc1ccccc1 was tested. Which cytotoxicity call did it give?
The cytotoxicity call was “inactive”.

C[C@H]1CCCCO[C@H](CN(C)C(=O)Nc2ccc(C(F)(F)F)cc2)[C@@H](C)CN([C@@H](C)CO)C(=O)c2cc(N(C)C)ccc2O1 was tested. Which cytotoxicity call did it give?
Its cytotoxicity call is “inactive”.

How did the cytotoxicity call turn out when C[C@H]1CN([C@@H](C)CO)C(=O)c2cc(C#Cc3ccccc3)cnc2O[C@H]1CN(C)S(=O)(=O)c1ccccc1F was run?
The cytotoxicity call was “inactive”.

With C[C@@H]1CN([C@H](C)CO)C(=O)c2cc(NC(=O)NC3CCCCC3)ccc2O[C@@H](C)CCCCO[C@H]1CN(C)C(=O)Nc1ccc(C(F)(F)F)cc1 as the compound, how does the cytotoxicity call read?
The cytotoxicity call was “inactive”.

For C[C@@H](O)c1nnc(N)[nH]1, which cytotoxicity call is on record?
Its cytotoxicity call is “inactive”.

C[C@@H]1CN([C@H](C)CO)C(=O)c2cccc(NS(=O)(=O)c3ccccc3)c2O[C@@H]1CN(C)S(=O)(=O)c1cccs1 was tested. Which cytotoxicity call did it give?
The cytotoxicity call was “inactive”.

Which cytotoxicity call does the source give for CC1OC(OC2C(Oc3cc(O)c4c(=O)cc(-c5ccc(O)cc5)oc4c3)OC(CO)C(O)C2O)C(O)C(O)C1O (stereo not given) here?
The cytotoxicity call was “inactive”.

Which cytotoxicity call does the source give for Cc1noc(C)c1S(=O)(=O)N(C)C[C@@H]1Oc2ccc(NC(=O)NC(C)C)cc2CC(=O)N([C@@H](C)CO)C[C@H]1C here?
The cytotoxicity call was “inactive”.

With C/C=C/c1cnc2c(c1)C(=O)N([C@@H](C)CO)C[C@H](C)[C@@H](CN(C)S(=O)(=O)c1ccc(OC)cc1)O2 as the compound, how does the cytotoxicity call read?
The cytotoxicity call was “inactive”.

Cn1cnc(S(=O)(=O)N2CC[C@@H](O)[C@@H]2Cc2cnn(C)c2)c1 was tested. Which cytotoxicity call did it give?
Its cytotoxicity call is “inactive”.

Which cytotoxicity call does the source give for Nc1nc2c(ncn2COCCO)c(=O)[nH]1 here?
The cytotoxicity call was “inactive”.
